Hit rate of the full screen: of about 71,000 compounds, about 1,800 (2.5%) were called active. The inconclusive results got no clear call from the source; some entries with a clear call stand among them for comparison. The call rests on the fitted dose curve; in most records, active means well fitted activation curve with a large enough effect in the signal ratio, with a control signal flat (not every such curve was filed as active); inconclusive means small, poorly fitted or top-dose-only effect, or effect the other way, or a change in a side signal; inactive means flat fitted curve, though single readings scatter; the % refers to the signal ratio. Potencies of inconclusive entries are doubtful fits and often do not repeat.
assay: Cell signaling CRE-BLA (Fsk stim); details: CHO CRE-bla reporter (cAMP response element driving beta-lactamase), forskolin EC10, beta-lactamase ratio; activity change, negative = inhibition: at 38.2 µM (top of the series) unless noted; on activity change, negative = inhibition: % of control where 0% means no effect
In short: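 CRE-bla CHO cells stimulated with EC10 NKH 477 (water-soluble forskolin) and compound titrations, 3 h at 37C; beta-lactamase read with CCF4 after 2 h at room temperature. Activity from 460/530 nm emission ratio, AC50 values for positive or negative modulation.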
Potency means the concentration at half of the fitted maximal effect; tags describe the fitted curve by direction and shape.

Compound | Potency | activity change, negative = inhibition
CCOc1ccccc1-c1nc(C(N)=O)c2[nH]c(=O)n(-c3cccc(C)c3)c2n1 | inconclusive: 10 µM [rising, partial curve] | 
Cc1c(C(=O)O)oc2ccc(S(=O)(=O)NCc3ccc4c(c3)OCO4)cc12 |  | inactive: 15%
CNC(=O)C(Sc1ccccc1)c1ccccc1 (centres undefined) |  | inconclusive: -23.6% [at 7.6 µM]
COc1ccc(CNC(=O)CSc2nnnn2-c2ccc(O)cc2)cc1 |  | inconclusive: -19.6%
CCC(=O)N1c2ccccc2-c2nnc(SC)nc2OC1c1ccc(N(C)C)cc1 (centres undefined) |  | inactive: -1.57%
Cc1ccc(C2C(C#N)=C(N)Oc3c2sc2ccccc32)o1 (centres undefined) |  | inconclusive: 21.7% [at 7.6 µM]
N#Cc1cc(-c2ccccc2)oc1NC(=O)c1ccco1 |  | inconclusive: 15.5%
CCOc1ccc(S(=O)(=O)N2CCN(S(=O)(=O)c3ccc(OCC)cc3)C(C)C2)cc1 (centres undefined) |  | inconclusive: 16% [at 7.6 µM]
Cc1cc(N=Cc2c(O)ccc3ccccc23)no1 |  | inconclusive: -22.8%
c1ccc(Cn2ncc3c2ncn2nc(-c4ccncc4)nc32)cc1 |  | inactive: 8.26%
COC(=O)C(O)(NC(=O)OCc1ccccc1)C(F)(F)F (centres undefined) |  | inconclusive: 15.9%
Cc1cccc(CNc2nc(-c3ccccc3CN(C)C)nc3ccccc23)c1 |  | inconclusive: 18.5%
CC(=O)c1cc2c(cc1NC(=O)CSc1nnc(C)s1)OCO2 | inconclusive: 12.6 µM [rising, single point] | 
Cc1cc(N2CCOCC2)n2nc(C)c(-c3ccccc3)c2n1 | inconclusive: 10 µM [rising, partial curve] | 
O=C1CCCc2c1cc(C(=O)NCc1ccco1)c(=O)n2-c1ccccc1 |  | inactive: 5.63%
CN(C)C(=O)CSc1cccc2cccnc12 |  | inactive: -18%
CC(N=Cc1cccc(O)c1O)c1ccccc1 (centres undefined) |  | inactive: -16.9%
C(=N\c1nc2ccccc2n1CCN1CCOCC1)/c1cccs1 | inconclusive: 0.251 µM [rising, partial curve] | 
O=C1CCNc2cc3ccccc3cc21 |  | inactive: -12%
Cc1ccc2c(CN3C(=O)NC4(CCCCC4)C3=O)cc(=O)oc2c1C | inconclusive: 10 µM [rising, partial curve] | 
COc1ccc(Cc2nc(-c3ccc(Br)o3)no2)cc1OC | inconclusive: 2 µM [rising, partial curve] | 
O=C(Nc1nc(-c2ccc3c(c2)OCO3)cs1)c1ccncc1 |  | inconclusive: -16%
C1=C(c2ccccc2)CCN(c2nc3ccccc3n3cnnc23)C1 | inconclusive: 5.01 µM [rising, single point] | 
N#C/C(=C\c1ccco1)Sc1nc2ccccc2s1 |  | inactive: -9.86%
